From publication PMC4336329 (PLoS ONE, 2015)
Hit rate of the full screen: of about 310,000 compounds, about 2,200 (0.71%) showed an effect of 50% or more. The effect is printed as a negative number. This is one part of the list.

Each compound was assayed against human ether-à-go-go-related gene (hERG) potassium channel (human, UniProt Q12809) (assay: primary screen, population patch clamp on CHO cells stably expressing hERG).
Sequence of human ether-à-go-go-related gene (hERG) potassium channel (Q12809 whole entry, looked up): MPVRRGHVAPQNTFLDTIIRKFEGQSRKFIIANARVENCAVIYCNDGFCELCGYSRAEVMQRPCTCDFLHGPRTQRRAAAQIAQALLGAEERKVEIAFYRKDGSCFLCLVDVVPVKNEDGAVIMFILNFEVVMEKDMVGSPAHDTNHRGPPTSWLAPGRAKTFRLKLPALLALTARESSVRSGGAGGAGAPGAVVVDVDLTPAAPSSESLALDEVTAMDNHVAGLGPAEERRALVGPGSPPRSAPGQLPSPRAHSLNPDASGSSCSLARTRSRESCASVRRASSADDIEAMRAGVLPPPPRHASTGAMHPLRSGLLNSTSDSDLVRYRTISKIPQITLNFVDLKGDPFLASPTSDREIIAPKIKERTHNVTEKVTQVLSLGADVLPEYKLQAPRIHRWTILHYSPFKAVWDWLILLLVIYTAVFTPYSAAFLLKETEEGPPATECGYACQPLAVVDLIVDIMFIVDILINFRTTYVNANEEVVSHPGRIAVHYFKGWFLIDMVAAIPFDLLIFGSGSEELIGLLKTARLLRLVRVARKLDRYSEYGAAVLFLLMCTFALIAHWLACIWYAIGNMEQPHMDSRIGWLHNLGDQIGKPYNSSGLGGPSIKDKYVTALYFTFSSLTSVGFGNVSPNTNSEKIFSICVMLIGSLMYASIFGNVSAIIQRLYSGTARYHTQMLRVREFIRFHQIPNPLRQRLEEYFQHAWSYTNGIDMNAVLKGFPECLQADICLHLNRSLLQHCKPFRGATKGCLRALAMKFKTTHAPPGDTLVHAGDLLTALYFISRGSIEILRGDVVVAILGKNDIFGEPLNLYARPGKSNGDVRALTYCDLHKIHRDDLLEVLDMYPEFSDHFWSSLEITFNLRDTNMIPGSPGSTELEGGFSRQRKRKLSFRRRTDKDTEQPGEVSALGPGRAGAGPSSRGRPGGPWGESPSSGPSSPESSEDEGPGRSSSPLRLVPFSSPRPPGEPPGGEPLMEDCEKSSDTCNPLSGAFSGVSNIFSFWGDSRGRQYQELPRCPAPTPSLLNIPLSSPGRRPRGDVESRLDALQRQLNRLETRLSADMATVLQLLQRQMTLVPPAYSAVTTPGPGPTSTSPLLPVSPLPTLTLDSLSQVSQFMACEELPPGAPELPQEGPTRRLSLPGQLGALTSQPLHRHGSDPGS

SMILES	hERG current change (%, negative = inhibition) at 1uM
CCN1C(=O)[C@H]2[C@@H](c3ccc(SC4CCCCC4)c(OC)c3)N[C@@](Cc3ccccc3)(C(=O)OC)[C@H]2C1=O.O=C(O)C(F)(F)F	13.7%
COc1ccc(/C=N/N=C2/NC(=O)C(CC(=O)NC(N)=O)S2)cc1 (centres unmarked)	4.48%
CCN(CC)C(=O)c1cn(C)c(=O)c2cc(OC)c(OC)cc12	20.3%
CCCN(C(=O)c1cccc(-n2cccc2)c1)c1c(N)n(Cc2ccccc2)c(=O)[nH]c1=O	17.8%
COc1ccc(NC(=O)CSc2nccc(C)n2)cc1	9.87%
O=C(CC(C(=O)O)P(=O)(c1ccccc1)c1ccccc1)c1ccc(Br)cc1 (centres unmarked)	-0.421%
O=C(N/N=C/c1ccc(Br)o1)c1cccnc1	11.3%
O=C(/C=C/c1ccc2c(c1)OCO2)N1CCCCC1	15.4%
Fc1ccc(-c2ncc3ccccn23)cc1	11.3%
CN(CC(=O)Nc1cccc(Cl)c1)S(=O)(=O)c1ccc2c(c1)n(C)c(=O)c(=O)n2C	1.68%
CN1CCC(N2CCCC(C(=O)O)C2)CC1.Cl (centres unmarked)	15.5%
Cc1ccc(/C=C/C(=O)NCc2ccco2)o1	6%
COc1cccc(NC(=O)CCP(C)(=O)O)c1	9.18%
CCOCc1nnc(NC(=O)CCS(=O)(=O)Cc2ccccc2)s1	15.4%
CCCOc1ccc2oc(=O)c3c(c2c1)CCCN3C(=O)CN(C)Cc1ccccc1	5.33%
Cc1oc(-c2cccc(Cl)c2)nc1CN1CCC(C(=O)NCCCN2CCCC2=O)CC1	-7.23%
Cc1nc2ccccn2c(=O)c1NC(=O)c1cccs1	6.9%
COc1ccc(NC(=O)CN(c2ccc(C(C)C)cc2)S(=O)(=O)c2c(C)noc2C)cc1OC	12.7%
Cc1ccc(SC2=C(Sc3ccc(C)cc3)C(=O)c3ccccc3C2=O)cc1	13.8%

SMILES	hERG current change (%, negative = inhibition) at 1uM
Cc1onc(-c2ccccc2Cl)c1C(=O)Nc1nnc(-c2cccc([N+](=O)[O-])c2)s1	16.6%
O=C(COc1coc(CN2CCc3ccccc3C2)cc1=O)Nc1cccc(F)c1	8%
O=C(Cn1cnc2scc(-c3ccccc3)c2c1=O)NCc1ccco1	1.92%
CC1(C)CC2(CCO1)NCCN1C(=O)CSC12 (centres unmarked)	9.54%
O=C(CSc1nc2ccccc2c(=O)n1CCCC(=O)N1CCCC1)NCc1ccco1	-30.9%
COc1ccccc1/C=C(/NC(=O)c1ccccc1)C(=O)NCCCn1ccnc1	13.6%
Cc1ccc(-c2nc3ccccc3nc2Cl)cc1	0.662%
CC(Oc1cccc2c1OC(C)(C)C2)C(=O)O (centres unmarked)	0.668%
O=C(/C=C/c1ccc(F)cc1)N1CCCc2ccccc21	1.9%
O=C(CNC(=O)c1ccco1)Nc1ccc2c(c1)OCCO2	12.7%
CCOc1cc(C=O)ccc1OCC(=O)N1CCCC1	13.2%
O=C(NNC(=S)Nc1ccccc1)Nc1ccccc1	13.8%
O=C(Cn1[nH]c(=O)c2ccccc2c1=O)Nc1cccnc1	9.58%
COc1cccc2cc(C(=O)N(Cc3cccs3)CC3CCCO3)c(=O)oc12 (centres unmarked)	16.3%
Cc1cccc(Nc2ccc(C(=O)O)cc2[N+](=O)[O-])c1C	9.83%
COc1ccc(Nc2ncnc3sc(C)cc23)cc1.Cl	13.1%
Cc1ccc(C(=O)N/C(=C\c2ccco2)C(=O)N2CCSCC2)cc1C	5.55%
O=C(NC1CCS(=O)(=O)C1)Oc1ccc(Cl)cc1 (centres unmarked)	8.62%
COc1ccccc1-n1cnc2cc(NS(=O)(=O)c3ccc(Br)cc3)ccc21	2.53%

SMILES	hERG current change (%, negative = inhibition) at 1uM
Cc1ccc(Oc2ccc(Oc3ccc(C)cc3)nn2)cc1	5.96%
Cc1ccc2nc(NC(=O)C3CCN(S(=O)(=O)c4cnc[nH]4)CC3)sc2c1	12.3%
O=C(COc1ccc([N+](=O)[O-])cc1)Nc1nc(-c2ccccn2)cs1	12.3%
O=C(CCN1C(=O)/C(=C/C=C/c2ccccc2)SC1=S)Nc1cccnc1	15.3%
COc1ccc(NC(=O)CN(C)C(=O)c2cc3c(s2)CCCCC3)cc1	10.5%
N#C/C(=C\c1ccc(-c2ccccc2[N+](=O)[O-])o1)C(=O)N1CCOCC1	5.45%
COc1cccc(C2Nc3ccc4ccccc4c3C3=C2C(=O)CC(C)(C)C3)c1OCC(=O)O (centres unmarked)	13.2%
COc1ccc(C(=O)/C(=C/N(C)C)S(=O)(=O)c2ccccc2)cc1	9.98%
CCCC(=O)Nc1cc2c(cc1C(C)=O)OCCO2	9.2%
Cc1[nH]c(=O)[nH]c(=O)c1S(=O)(=O)Nc1ccc(Oc2ccccc2)cc1	5.62%
Cc1cc(C)c2cc(C(=O)Nc3ccc4c(c3)OCO4)[nH]c2c1	10.4%
CCOC(=O)c1sc(NC(=O)CSc2nc3c(cc2C#N)CCCCCC3)c(C#N)c1C	3.81%
COc1ccc([C@H]2[C@H]3C=CC[C@@H](C)[C@@H]3C(=O)N2Cc2ccccc2)cc1Cl	14.8%
O=C(CN1CCC(NC(=O)c2ccccc2)CC1)NCc1ccccc1F	-5.83%
Cc1csc(SCC(=O)Nc2cc(S(=O)(=O)N3CCOCC3)ccc2N2CCOCC2)n1	-1.15%
CCN(CC)S(=O)(=O)c1csc(C(=O)NC2CCCCC2)c1	9.4%
C/C(=N\NC(=O)CCc1ccc(S(=O)(=O)N2CCOCC2)cc1)c1ccc(OC(F)F)cc1	8.73%
O=C(N=Nc1c(O)n(C2OC(=O)c3ccccc32)c2ccccc12)c1ccc(O)cc1 (centres unmarked)	-2.37%
